Publication PMC10586699
Like-named read-outs stand apart in the source and are kept apart here. No constants are given. Whether binding was seen depends on the method and setting. For some of these results: Binding seen in cells or lysates may run through a third protein. Some results given as binding are weak or reduced against the parent protein; the word gives no strength. Sequences can lack the tags named with a protein. Blank lines part the entries; values can stand above or below the molecule they belong to.

Protein sequences, listed by entry. Tags and fused reporters are not part of them. Lines headed by an entry give the natural chain unless they say otherwise; changes in a name come on top.
UniProt Q06168: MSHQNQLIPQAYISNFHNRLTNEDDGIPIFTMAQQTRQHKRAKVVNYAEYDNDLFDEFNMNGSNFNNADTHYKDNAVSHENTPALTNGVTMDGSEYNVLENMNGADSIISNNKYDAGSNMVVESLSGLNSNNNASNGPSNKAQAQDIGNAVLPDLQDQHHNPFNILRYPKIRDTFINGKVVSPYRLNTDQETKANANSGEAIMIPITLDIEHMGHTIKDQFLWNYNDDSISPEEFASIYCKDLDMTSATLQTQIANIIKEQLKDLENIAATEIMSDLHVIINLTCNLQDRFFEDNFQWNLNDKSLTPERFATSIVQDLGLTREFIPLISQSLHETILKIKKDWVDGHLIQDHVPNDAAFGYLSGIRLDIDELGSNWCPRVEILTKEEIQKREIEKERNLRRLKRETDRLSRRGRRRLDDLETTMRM

Columns and labels:
[1] = target: T1, Rep1 fused to the Gal4 DNA binding domain (yeast 2-micron plasmid (Saccharomyces)) (UniProt P03871); assay: two-hybrid; Gal4-based Matchmaker Gold Two-hybrid System (Clontech); diploids from mating of bait and prey strains, serial dilutions spotted; reporters HIS3 (with 3-AT), MEL1 (X-α-gal), AUR1-C (Aureobasidin A); [Cir+] and [Cir0] hosts
T1 sequence: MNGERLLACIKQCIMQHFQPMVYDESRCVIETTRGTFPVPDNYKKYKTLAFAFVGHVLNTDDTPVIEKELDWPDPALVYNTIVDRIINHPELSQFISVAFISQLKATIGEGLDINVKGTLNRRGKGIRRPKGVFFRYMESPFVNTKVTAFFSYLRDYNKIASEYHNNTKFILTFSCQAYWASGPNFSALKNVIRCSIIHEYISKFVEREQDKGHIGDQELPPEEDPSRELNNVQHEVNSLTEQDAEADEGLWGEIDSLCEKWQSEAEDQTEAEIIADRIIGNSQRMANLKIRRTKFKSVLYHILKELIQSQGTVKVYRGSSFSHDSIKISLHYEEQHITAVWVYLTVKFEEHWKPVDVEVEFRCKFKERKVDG

[2] = target: T2, Rep2 expressed in E. coli (yeast 2-micron plasmid (Saccharomyces)) (UniProt P03872); assay: co-IP; proteins expressed in E. coli individually or in pairs; extracts immunoprecipitated with Anti-His or Anti-GST antibodies (reciprocal); western blot
T2 sequence: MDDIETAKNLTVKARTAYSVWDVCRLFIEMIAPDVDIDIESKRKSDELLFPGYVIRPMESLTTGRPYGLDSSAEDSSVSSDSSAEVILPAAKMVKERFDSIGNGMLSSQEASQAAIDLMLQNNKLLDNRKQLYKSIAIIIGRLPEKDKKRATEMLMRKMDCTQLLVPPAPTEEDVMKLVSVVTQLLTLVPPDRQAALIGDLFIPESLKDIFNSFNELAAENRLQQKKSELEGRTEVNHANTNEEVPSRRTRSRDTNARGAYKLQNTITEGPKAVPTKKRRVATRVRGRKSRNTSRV

[3] = target: T3, Rep1 expressed in E. coli (yeast 2-micron plasmid (Saccharomyces)) (UniProt P03871); assay: as above
T3 sequence: T1 sequence

[4] = target: T1, Rep1 fused to the Gal4 DNA binding domain (yeast 2-micron plasmid (Saccharomyces)); assay: two-hybrid; screen of a yeast cDNA library with Rep1
[5] = target: T4, Rep2 fused to the Gal4 DNA binding domain (yeast 2-micron plasmid (Saccharomyces)) (UniProt P03872); assay: two-hybrid; Gal4-based Matchmaker Gold Two-hybrid System (Clontech); diploids from mating of bait and prey strains, serial dilutions spotted; reporters HIS3 (with 3-AT), MEL1 (X-α-gal), AUR1-C (Aureobasidin A); [Cir+] and [Cir0] hosts
T4 sequence: T2 sequence

[6] = target: T5, HA-tagged Rep1 expressed in yeast (yeast 2-micron plasmid (Saccharomyces)) (UniProt P03871); assay: co-IP; yeast extracts; primary enrichment with anti-HA (Rep1), anti-Myc (Rep2) or anti-CBP (Rsc2-CBP or Rsc1-CBP); western blot with each of these antibodies
T5 sequence: T1 sequence

[7] = target: T1, Rep1 fused to the Gal4 DNA binding domain (yeast 2-micron plasmid (Saccharomyces)); assay: two-hybrid; Gal4-based Matchmaker Gold Two-hybrid System (Clontech); diploids from mating of bait and prey strains, serial dilutions spotted; reporters HIS3 (with 3-AT), MEL1 (X-α-gal), AUR1-C (Aureobasidin A); [Cir+] and [Cir0] hosts; remark: listed apart in the source
[8] = target: T4, Rep2 fused to the Gal4 DNA binding domain (yeast 2-micron plasmid (Saccharomyces)); assay: as above; remark: listed apart in the source

binding [1]: binds
Molecule: Sfh1 fused to the Gal4 activation domain (from UniProt Q06168 1-426)

binding [2]: no binding | binding [3]: binds
Molecule: Sfh1(Δ1–278) expressed in E. coli (from UniProt Q06168 279-426) (domain or fragment)

binding [4]: binds | binding [1]: binds | binding [5]: no binding
Molecule: Sfh1(Δ1–278) fused to the Gal4 activation domain (from UniProt Q06168 279-426) (domain or fragment)

binding [3]: binds
Molecule: full-length Sfh1 expressed in E. coli (from UniProt Q06168 1-426)

binding [6]: binds
B1: Myc-tagged Rep2 expressed in yeast (protein, UniProt P03872 1-296)
chain: T2 sequence

binding [7]: binds
B2: Rep2 fused to the Gal4 activation domain (protein, UniProt P03872 1-296)
chain: T2 sequence

binding [8]: binds
B3: Rep1 fused to the Gal4 activation domain (protein, UniProt P03871 1-373)
chain: T1 sequence
